The values below come from PubChem BioAssay AID360 (National Center for Advancing Translational Sciences (NCATS), 2006).

The campaign covered roughly 48,000 compounds. About 550 (1.1%) were called active. Roughly 4% stayed inconclusive and do not appear here. Cut-off read from the data, not from the text of the source: active = potency below about 15 µM; inconclusive = mostly about 16 µM to 33 µM; inactive = weaker than that. The list shows a part of the results.
Potency is the fitted concentration of half-maximal effect.

This experiment has as its target Lysosomal acid glucosylceramidase (Homo sapiens) (UniProt P04062). The experiment is described as follows: Glucocerebrosidase.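 Note: the screen sought inhibitors.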 The following applies: purified enzyme, resorufin glucoside fluorescence (screen aimed at inhibitors), 20 min. Summed up: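 Compounds titrated against 0.2 nM normal enzyme, 30 uM resorufin beta-D-glucopyranoside substrate, citrate/phosphate buffer with taurocholate and tween-20, pH 5.9. Reaction ran 20 min at room temperature; fluorescence (Ex 548/Em 600) gave AC50.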
Sequence of UniProt P04062 (P04062 whole entry, looked up): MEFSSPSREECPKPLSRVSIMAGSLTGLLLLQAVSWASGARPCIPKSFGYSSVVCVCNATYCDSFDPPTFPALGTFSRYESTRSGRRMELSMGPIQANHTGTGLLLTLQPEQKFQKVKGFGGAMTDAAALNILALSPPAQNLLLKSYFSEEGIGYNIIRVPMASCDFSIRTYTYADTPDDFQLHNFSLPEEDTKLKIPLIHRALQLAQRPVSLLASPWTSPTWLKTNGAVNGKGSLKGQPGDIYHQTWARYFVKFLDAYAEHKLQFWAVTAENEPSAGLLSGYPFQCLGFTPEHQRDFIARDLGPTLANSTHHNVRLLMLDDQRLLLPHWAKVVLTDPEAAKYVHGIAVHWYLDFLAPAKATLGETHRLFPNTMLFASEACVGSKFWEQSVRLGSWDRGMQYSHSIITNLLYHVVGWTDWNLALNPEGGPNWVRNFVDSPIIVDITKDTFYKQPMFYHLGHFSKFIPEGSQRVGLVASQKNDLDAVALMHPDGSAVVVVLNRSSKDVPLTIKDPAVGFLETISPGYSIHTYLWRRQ
Regarding `O=C(CCCCCn1c(=S)[nH]c2cc3c(cc2c1=O)OCO3)N1CCN(C2CCCCC2)CC1`, the Potency was active: 0.896 µM.
As for `COc1ccc(OC)c(NC(=O)C2C3CC4OC(=O)C2C4C3)c1` (centres undefined), the figure is inactive: > 76.9 µM.
As for `O=C(Nc1c(F)c(F)c(F)c(F)c1F)NC1CCCCC1`, the figure is inactive: > 76.9 µM; as for `C=CCn1c(-c2ccc(OC)c(OC)c2)cs/c1=N\c1ccccn1`, inactive: > 76.9 µM; as for `COc1cc(NC(=O)c2ccc(COc3ccccc3Br)o2)cc(OC)c1OC`, inactive: > 76.9 µM.
As for `COC(=O)N1CC(=O)N(OC)C1c1ccc(Cl)cc1Cl` (centres undefined), the figure is inactive: > 76.9 µM; as for `Cc1ccc(C)c(NC(=O)CCN2CC(C)OC(C)C2)c1` (centres undefined), inactive: > 76.9 µM; as for `COc1ccc(-c2cc3nc(C)c(CCC(=O)NCc4ccco4)c(C)n3n2)c(OC)c1`, inactive: > 76.9 µM.
Turning to `COc1ccc(C(=O)CSc2nnc(COc3ccccc3)n2Cc2ccco2)cc1`, the Potency is inactive: > 76.9 µM.
As for `Cc1cc(N2CC(=O)N(CCc3ccccc3)C(=O)C2)n2ncnc2n1`, the figure is inactive: > 76.9 µM.
With `CN(C)c1nc(Nc2ccc(Cl)cc2)nc(OCC#N)n1`, the Potency is inactive: > 76.9 µM.
The same measure for `COc1ccccc1S(=O)(=O)Cc1ccc(C(=O)NCc2cccs2)o1`: inactive: > 76.9 µM; for `O=C(CCn1c(=O)oc2ccccc21)N1CCN(C(c2ccccc2)c2ccccc2)CC1`: inactive: > 76.9 µM.
As for `CC(=O)Nc1ccc(N2CCOCC2)c(C(=O)Nc2cccc(C)c2)c1`, the figure is inactive: > 76.9 µM; as for `CC(=O)c1c(C)nc2nonc2c1N`, inactive: > 76.9 µM; as for `CCOC(=O)c1ccc(-c2n[nH]c(=O)c3ccccc23)cc1`, inactive: > 76.9 µM.
For `CC1CCCC(C)N1CC(O)COc1ccc(Cl)cc1` (centres undefined), the Potency is inactive: > 76.9 µM.
As for `COc1ccc(S(=O)(=O)Nc2ccc(S(=O)(=O)N3CCCCC3)cc2)cc1`, the figure is inactive: > 15.4 µM; as for `Cc1ccc(S(=O)(=O)NCCC(=O)NC2CCCC2)cc1`, inactive: > 76.9 µM.
As for `Cc1ccc(SCc2cc(=O)[nH]c(N3CCN(Cc4ccccc4)CC3)n2)cc1`, the figure is inactive: > 76.9 µM; as for `O=C(CN1CCN(c2ccccc2)CC1)Nc1nccs1`, inactive: > 76.9 µM; as for `O=C(OC(C(=O)NCC1CCCO1)c1ccc(F)cc1)c1ccco1` (centres undefined), inactive: > 76.9 µM.
Consider `Cc1ccc(N(C(=O)Cn2nnc3ccccc32)C(C(=O)NC2CCCCC2)c2cn(C)nc2C)cc1` (centres undefined), for which the Potency was inactive: > 76.9 µM.
The same measure for `Cc1cc(C)cc(Nc2cc(=O)n(C3CCCCC3)c(=O)[nH]2)c1`: inactive: > 76.9 µM; for `O=C(CSc1nnnn1-c1ccc(F)cc1)NC1CCCCC1`: inactive: > 76.9 µM.
The same measure for `CCCC(=O)Nc1cc2c(cc1C(=O)c1ccccc1)OCCO2`: inactive: > 76.9 µM.
The same measure for `O=C(NC1CCCCCC1)c1c(O)c2cccc3c2n(c1=O)CCC3`: inactive: > 76.9 µM.
On to `CCOC(=O)c1ccccc1NC(=O)c1c(F)c(F)c(F)c(F)c1F`, for which the Potency is inactive: > 76.9 µM.
As for `COc1ccc(OC)c2[nH]c(=O)c(CCNC(=O)c3ccc(S(=O)(=O)N(C)C)cc3)cc12`, the figure is inactive: > 76.9 µM.
As for `OC12CCCCC1C(c1ccc3c(c1)OCO3)N(Cc1cccc(F)c1)CC2` (centres undefined), the figure is inactive: > 76.9 µM.
As for `CC(NC(=O)c1ccccc1NC(=O)c1ccco1)C(=O)O` (centres undefined), the figure is inactive: > 76.9 µM; as for `O=c1nc(-c2ccccc2)cn[nH]1`, inactive: > 76.9 µM.
Regarding `COC(=O)c1ccccc1NC(=O)c1noc2c1CCC2`, the Potency is inactive: > 76.9 µM.
The same measure for `CCn1c(NC(=O)c2cccs2)nc2ccccc21`: inactive: > 76.9 µM; for `CC(C)c1ccc(-c2nn[nH]n2)cc1`: inactive: > 76.9 µM; for `COc1ccc(-c2ccc(NCCC3=CCCCC3)nn2)cc1OC`: inactive: > 76.9 µM.
The same measure for `CCCc1cc(=O)oc2cc(C)cc(OCc3nn[nH]n3)c12`: inactive: > 76.9 µM; for `O=C(c1cnn2c(C(F)F)cc(C3CC3)nc12)N1CCOCC1`: inactive: > 76.9 µM.
`N#CCSc1ncnc2sc3c(c12)CCC3`: the Potency was inactive: > 76.9 µM.
As for `CCn1c(C)csc1=NC(=O)c1ccccc1O`, the entry is “inactive”; as for `COCCn1c(SCC#N)nnc1-c1ccccc1`, inactive: > 76.9 µM.
As for `COC(=O)C1C(=O)C2=C(CC1C)NC(C)=C(C(=O)OCCOc1ccccc1)C2c1ccc(C)o1` (centres undefined), the figure is inactive: > 76.9 µM; as for `CCOc1ccc(C2c3c(oc4ccccc4c3=O)C(=O)N2CCCN2CCOCC2)cc1` (centres undefined), inactive: > 76.9 µM; as for `CC1(C)CC(=O)C=C(N2CCNCC2)C1`, inactive: > 76.9 µM.
As for `CCOC(=O)CCCCNCc1ccccc1`, the figure is inactive: > 76.9 µM; as for `CCC(C(=O)N1CCN(S(C)(=O)=O)CC1)c1ccccc1` (centres undefined), inactive: > 76.9 µM.
Take `CC(=O)NCCSCCNC(C)=O`: the Potency is inactive: > 76.9 µM.
As for `O=C(COc1ccc(Cl)cc1Cl)NCc1ccco1`, the figure is inactive: > 76.9 µM; as for `COC(=O)C1=CNC=C(C(=O)OC)C1c1ccc(Cl)cc1`, inactive: > 76.9 µM.
As for `Nn1c(SCC(=O)NC2CCCCC2)nnc1-c1ccccc1`, the figure is inactive: > 76.9 µM; as for `CCOC(=O)c1cc2sc(C)cc2n1CC(=O)NCc1ccc(F)cc1`, inactive: > 76.9 µM; as for `Cc1noc(C)c1COc1ccc(C(=O)OCC(=O)c2ccc3c(c2)OCCO3)cc1`, inactive: > 76.9 µM.
The same measure for `COc1ccccc1C1C=C(c2ccc(Cl)cc2)Nc2nc(N3C(=O)CCC3=O)nn21` (centres undefined): inactive: > 76.9 µM; for `COC(=O)Cn1cnc2sc(C)c(S(=O)(=O)N3CCC(C)CC3)c2c1=O`: inactive: > 76.9 µM.
Turning to `Cc1ccc(-n2ncc3c(NCC4CCCO4)ncnc32)c(C)c1` (centres undefined), the Potency was inactive: > 76.9 µM.
As for `CCCS(=O)(=O)N1CCC(C(=O)NCCc2ccc(OC)c(OC)c2)CC1`, the figure is inactive: > 76.9 µM; as for `Cc1ccc(C)c(S(=O)(=O)c2c(N)n(/N=C/c3ccco3)c3nc4ccccc4nc23)c1`, inactive: > 76.9 µM.
The same measure for `O=C(OCC1COc2ccccc2O1)c1ccccc1F` (centres undefined): inactive: > 76.9 µM; for `O=C(OCC(=O)N1CCCC1)c1cncc(Br)c1`: inactive: > 76.9 µM.
